Data from article PMC4336329 (PLoS ONE, 2015).
In all, about 310,000 compounds went through this assay and about 2,200 (0.71%) showed an effect of 50% or more. The effect is printed as a negative number. The list shows a part of the results.

Biological target: human ether-à-go-go-related gene (hERG) potassium channel (human, UniProt Q12809)
Experiment: primary screen, population patch clamp on CHO cells stably expressing hERG

Sequence of human ether-à-go-go-related gene (hERG) potassium channel (Q12809 whole entry, looked up): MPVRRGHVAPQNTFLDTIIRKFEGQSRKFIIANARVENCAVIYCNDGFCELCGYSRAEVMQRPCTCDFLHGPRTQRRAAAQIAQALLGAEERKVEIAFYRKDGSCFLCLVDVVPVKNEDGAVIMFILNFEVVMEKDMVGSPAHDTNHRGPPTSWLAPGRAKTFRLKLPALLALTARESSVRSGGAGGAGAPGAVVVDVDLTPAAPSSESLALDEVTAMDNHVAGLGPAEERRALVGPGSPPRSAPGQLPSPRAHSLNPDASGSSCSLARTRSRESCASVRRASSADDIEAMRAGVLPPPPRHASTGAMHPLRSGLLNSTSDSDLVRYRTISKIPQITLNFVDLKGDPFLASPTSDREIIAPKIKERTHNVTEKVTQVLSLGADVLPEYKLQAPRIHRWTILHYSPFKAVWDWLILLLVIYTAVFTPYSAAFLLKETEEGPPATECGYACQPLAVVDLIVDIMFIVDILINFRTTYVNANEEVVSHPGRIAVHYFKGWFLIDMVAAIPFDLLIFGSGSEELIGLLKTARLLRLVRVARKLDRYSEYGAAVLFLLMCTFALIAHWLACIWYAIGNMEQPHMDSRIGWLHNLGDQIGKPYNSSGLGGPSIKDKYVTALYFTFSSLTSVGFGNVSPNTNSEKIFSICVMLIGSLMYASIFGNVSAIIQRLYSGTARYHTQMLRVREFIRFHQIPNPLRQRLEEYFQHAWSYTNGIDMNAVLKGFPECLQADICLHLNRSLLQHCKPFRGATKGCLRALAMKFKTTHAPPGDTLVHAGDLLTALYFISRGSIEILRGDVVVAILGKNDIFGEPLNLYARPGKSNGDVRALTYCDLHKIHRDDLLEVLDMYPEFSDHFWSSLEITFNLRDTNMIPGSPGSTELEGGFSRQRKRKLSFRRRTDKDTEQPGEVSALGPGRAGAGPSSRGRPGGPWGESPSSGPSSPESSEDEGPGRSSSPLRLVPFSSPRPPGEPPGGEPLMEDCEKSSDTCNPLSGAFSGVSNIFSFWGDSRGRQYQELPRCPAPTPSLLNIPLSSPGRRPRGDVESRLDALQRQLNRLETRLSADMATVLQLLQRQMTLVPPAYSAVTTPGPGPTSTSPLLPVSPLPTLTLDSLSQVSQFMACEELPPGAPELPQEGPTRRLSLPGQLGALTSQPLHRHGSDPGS

Compound	hERG current change (%, negative = inhibition) at 1uM [%]
CCSc1nnc(NC(=O)CCNS(=O)(=O)c2ccccc2F)s1	8.1
CCOC(=O)c1ccc(NC(=S)NCc2ccc(F)cc2)cc1	11.5
Cc1c(NS(=O)(=O)c2cccc(C(=O)NCc3ccncc3)c2)c(=O)n(-c2ccccc2)n1C	10.9
CSCCC(NC(=O)COc1ccccc1)C(=O)N(C)CC(=O)Nc1ccc(C)cc1 (centres unmarked)	4.33
O=C(CSc1nncc(=O)[nH]1)NCc1ccccc1	7.3
C/C(=N\NC(=S)Nc1cccc(C)c1)c1ccco1	7.46
CCc1cc(C(=O)Cc2ccc(F)cc2)c(O)cc1O	9.49
COc1cccc(Cn2cc(C(=O)NCCN(C)C)nn2)c1	10.4
CC(C)CCNC(=O)c1ccc(OC2CCN(S(=O)(=O)N(C)C)CC2)cc1	15.9
CC(C)(C)C(=O)OCc1nc(-c2ccc(Cl)cc2)cs1	9.52
C=CCn1c(SCC(=O)N2CCOCC2)nc2scc(-c3ccco3)c2c1=O	-30.6
CCOC(=O)CC(NS(=O)(=O)c1ccc(OC)c(OC)c1)c1cccc([N+](=O)[O-])c1 (centres unmarked)	2.91
O=C(Cc1ccccc1)Nc1cc([N+](=O)[O-])ccc1N1CCOCC1	-8.2
COc1ccc(C(O)c2nccn2C)cc1 (centres unmarked)	12.3
COc1ccc(COC(=O)C2=C(C)NC(=O)NC2c2ccccc2F)cc1 (centres unmarked)	18.6
O=C(CN(C(=O)c1csnn1)c1ccc(F)cc1)NCc1ccc(F)cc1	3.44
COc1cccc(-c2nc(CS(=O)(=O)CC(=O)NCCc3cc(OC)ccc3OC)c(C)o2)c1	11.4
Cc1ccc(C(=O)Nc2ccon2)cc1S(=O)(=O)N1CCOCC1	-4.23
CC(C)N(Cc1nc(-c2ccccc2)no1)C(=O)C(C)(C)C	2.17
COCCN=C1NN=C(c2ccc(C)c([N+](=O)[O-])c2)CS1	9.31
COc1ccc(-c2[nH]ncc2/C=N\NS(=O)(=O)c2ccc(Cl)cc2)cc1	7.39
O=C(/C=C/NCc1cccnc1)c1ccc(Br)cc1	8.42
COc1ccc(N2C(=O)NC(NS(=O)(=O)c3ccccc3)(C(F)(F)F)C2=O)cc1 (centres unmarked)	0.554

Compound	hERG current change (%, negative = inhibition) at 1uM [%]
COc1cc2cc(C(=O)N/N=C/c3ccccc3Cl)[nH]c2cc1OC	8.39
Cc1ccc(C)c(N2CCN(S(=O)(=O)c3ccc4c(c3)NC(=O)CC(=O)N4)CC2)c1	8.13
CC(C)n1cc(NC(=O)C2CC(c3cccc(Br)c3)=NO2)cn1 (centres unmarked)	8.93
Cc1ccc(-n2c(C)cc(C(=O)CN3CCCCC3)c2C)cc1	-5.25
CC(OC(=O)C1CC(=O)N(Cc2ccccc2)C1)C(=O)Nc1ccc(F)cc1Cl (centres unmarked)	-4.14
COc1ccc(NC(=O)/C=N/O)cc1	16.2
O=C(Nc1cccc([N+](=O)[O-])c1)c1ccc2ccccc2c1O	14
COc1ccc(NC(=O)c2c(-c3ccccc3Cl)noc2C)c(OC)c1	12.4
CN(C)S(=O)(=O)c1cccc(NC(=O)COc2cccc(C#N)c2)c1	-2.24
Cc1ccc(N2CCN(CCc3nc4cc(NS(C)(=O)=O)ccc4n3C)CC2)cc1	-35.3
O=C(O)CN1C(=O)C2(OCCCO2)c2ccccc21	12.1
CCCCNC(=O)c1ccccc1SCc1c(C)noc1C	1.96
CCc1cc(C(=O)N2CCOCC2)c(NC2=NS(=O)(=O)c3ccccc32)s1	-1.74
Cc1cc(-c2nc3ccccc3o2)c2ccccc2n1	1.65
CN(CC(=O)Nc1ccc2c(c1)OCO2)S(=O)(=O)c1ccc(F)cc1	9.89
O=C(Cc1cccs1)Nc1cccc(-c2nc3ccccc3o2)c1	11.4
CCOC(=O)CNC(=O)OC1CCN2Cc3ccccc3N=C12.Cl (centres unmarked)	11.6
Cc1ccccc1CN1CCN(S(C)(=O)=O)CC1	-2.32
CCCCc1nnc(NC(=O)CN2C(=O)NC3(CCCCC3)C2=O)s1	12
CCCCC/C(=N\NC(=O)Nc1ccccc1)c1ccccc1	2.06
CCOc1cccc(CN2CCN(CCCc3ccccc3)C(CCO)C2)c1O (centres unmarked)	-54.7
CCC(C)[C@H](NC(=O)c1cc2cc(Cl)ccc2n1C)C(=O)N1CCC(C(=O)O)CC1 (some centres unmarked)	16.4
CC1CCC(C#N)(N(C)C(=O)CSc2nnc(C3CC3)n2C2CC2)CC1 (centres unmarked)	3.75

Compound	hERG current change (%, negative = inhibition) at 1uM [%]
CCOc1ccc(C(CC(=O)O)NC(=O)C23CC4CC(CC(C4)C2)C3)cc1 (centres unmarked)	2.99
COCC(C)n1c(COc2ccccc2F)nnc1SCC(=O)Nc1oc(C)c2c(C)n[nH]c(=O)c12 (centres unmarked)	11
CC1CCc2nc3ccc(S(=O)(=O)N4CCC(C(=O)NCc5ccccc5Cl)CC4)cc3c(C(=O)O)c2C1 (centres unmarked)	10.3
COc1cc(/C=N/NC(N)=O)cc([N+](=O)[O-])c1O	6.78
COc1ccc(CC(=O)NNC(=O)c2cc(C)[nH]n2)cc1	20.5
O=C(O)c1ccccc1C(=O)NCC(O)c1ccccc1 (centres unmarked)	-0.637
Cc1ccc(S(=O)(=O)Cc2nc3ccccc3c(=O)[nH]2)cc1	-5.44
C=CCN1C(=O)c2ccc(C(=O)N(C)CC(=O)Nc3ccc(OCC)c(OCC)c3)cc2C1=O	-11
O=C(CN1C(=O)COc2ccccc21)NCc1ccccn1	-5.78
COc1ccccc1NC(C)=O	4.87
CC(=O)Nc1ccc(OCC(O)Cn2ccnc2)cc1 (centres unmarked)	25.7
CC1CCCN(c2nc3c(c(=O)[nH]c(=O)n3C)n2CCSc2nc3ccccc3o2)C1 (centres unmarked)	-0.325
Cc1ccc([N+](=O)[O-])cc1NC(=O)C(C)N1CCCCC1 (centres unmarked)	18.1
Cc1cc(C)c2nc(SCCc3ccccc3)nc(C)c2c1	-8.27
CCOc1ccccc1NC(=O)N1CCC(NC(=O)c2cccc(C)c2)CC1	12.5
COc1ccc([C@H]2CC(=O)C=C(c3ccc4ccn(C)c4c3)C2)cc1	10.6
O=C(COC(=O)COc1ccccc1Cc1ccccc1)Nc1cccnc1Cl	8.3
Cc1nnc(SCC(=O)NNC(=O)c2ccccc2)n1N	17.1
Cc1cccc(OCc2nnc(N)s2)c1C	11
CCC(=O)c1cn(CC(=O)NCC2CCCO2)c2ccccc12 (centres unmarked)	10.1
Cc1cc(NC(=O)CCS(=O)(=O)c2nc(-c3ccccc3)cc(C(F)(F)F)n2)no1	-0.0403
CCOC(=O)N1CCN(C(=O)C2CC(c3ccc(F)cc3)=NO2)CC1 (centres unmarked)	-15.2
CCN(c1ccccc1)S(=O)(=O)c1ccc(C(=O)Nc2ncccc2O)cc1	4.33

Compound	hERG current change (%, negative = inhibition) at 1uM [%]
COc1ccc(NC(=O)CN2C3CCC2CC(O)(c2cccnc2)C3)cc1OC (centres unmarked)	5.42
Cc1cc(=O)oc2cc(OCC(=O)N3CCCC(C)C3)ccc12 (centres unmarked)	-8.52
CC(C)c1ccc(NC(=O)CSc2nc(-c3ccccc3F)nc3nc[nH]c23)cc1	1.94
COc1cc2ccccc2cc1C(=O)Nc1ccc(CN2CCOCC2)cc1	12.7
CCC(C)C1N=C(c2ccccc2)c2cc(Cl)ccc2N(CC(=O)NCc2ccco2)C1=O (centres unmarked)	6.48
CCN(CC)S(=O)(=O)c1ccc(Cl)c(C(=O)Oc2cccc(-c3cnc4ccccc4n3)c2)c1	9.54
Cc1cc2c3c(c1)C1(C(=O)N3C(C)(C)CC2C)C(C#N)=C(N)Oc2n[nH]c(C)c21 (centres unmarked)	10.5
Cc1cccc(N/C(N)=N/c2nc(C(F)(F)F)cc(=O)[nH]2)c1C	11.5
O=C(Nc1ccc(N2CCCCC2)cc1)C1CCCN1S(=O)(=O)c1ccc(F)cc1 (centres unmarked)	7.86
CSCC(C)N1CCC(n2nccc2NC(=O)c2ccc3c(c2)OCO3)CC1 (centres unmarked)	9.41
CCOC(=O)N1CCN(C2CC(=O)N(c3ccc(C)cc3)C2=O)CC1 (centres unmarked)	12.6
Cc1ccc2nc(Nc3ccccc3)c(C=O)c(=O)n2c1	9.96
O=C(CN(Cc1ccccc1Cl)C(=O)c1ccc(CN2CCOCC2)o1)NCC1CCCO1 (centres unmarked)	15.2
N#CCC(=O)Nc1ccc(C(=O)OCC(=O)Nc2ccc3ccccc3c2)cc1	6.67
O=C(NC1CCN(C(=O)NCc2ccccc2)CC1)c1ccccc1	18.5
Nc1ccc2c(c1)C(=O)C(=O)c1ccccc1-2	5.93
O=C(c1ccco1)N1CCN(Cc2csc(-c3ccccc3Cl)n2)CC1	-4.33
Cc1ccc(NC(=O)CSc2nnc(C(F)(F)F)n2C)cc1[N+](=O)[O-]	-6.8
Cc1cccc(Nc2ncccc2C(=O)O)c1C	18.5
c1ccc(N2CCN(c3ccccc3)C2c2cccnc2)cc1	7.09
